Measurements: PubChem BioAssay AID445 (National Center for Advancing Translational Sciences (NCATS), 2006)
About 40 (0.04%) of roughly 110,000 compounds were called active. Inconclusive means that the source gave no clear call. Such entries were picked first, then a sample of the others. The call rests on the fitted dose curve; in most records, active means well fitted curve in the direction sought with a large enough effect in the signal ratio (not every such curve was filed as active); inconclusive means small, poorly fitted or top-dose-only effect, or a change in a side signal; inactive means flat fitted curve, though single readings scatter; the % refers to the signal ratio. Where the call is inconclusive, the potency comes from a doubtful curve fit.

assay: IkB Signaling; conditions: ABC-DLBCL IkBa-CBG/CBR dual luciferase ratio (green luciferase fused to IkBa over red control in OCI-Ly3 lymphoma cells), 4 h; IkBa stabilization activation: at 57.1 µM (top of the series), scaled: untreated 0%, proteasome inhibitor 100% unless noted;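 on IkBa stabilization activation: 0% = basal untreated cells and 100% = reference inhibitor full response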
Summary of the method: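 In this assay, an IκBα–CBG68 fusion accumulates when IKK-driven degradation is blocked; native CBR normalizes for cell number. OCI-Ly3 cells were treated 4 h with compound and doxycycline, then green and red light read after Chroma-Glo addition.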
Potency means the concentration at half of the fitted maximal effect.

Structure (SMILES)	IkBa stabilization activation	Potency
COc1ccc(NC(=O)c2oc3ccc(S(=O)(=O)N4CCC5(CC4)OCCO5)cc3c2C)cc1	inconclusive: -1.51% [signal inhibitor]	–
CCn1c2c(c(=O)n3ncc(C(=O)Nc4cc(Cl)ccc4OC)c13)CN(Cc1ccc(OC)cc1)CC2	inconclusive: 2.04% [signal inhibitor]	–
COC(=O)[C@H](N)Cc1ccc(Cl)cc1	inactive	–
Cc1c(C(=O)OCCOc2ccccc2)[nH]c2c1C(=O)CC(c1ccc(C(C)(C)C)cc1)C2 (stereo not given)	inconclusive: -3.13% [signal inhibitor]	–
CCOC(=O)C1CCN(C(=O)CCc2nc3ccccc3[nH]2)CC1	–	inconclusive: 31.6 µM [signal inhibitor, partial curve]
CCCNC(=O)CCC(=O)N1Cc2cccc(OC)c2Oc2ncccc21	inactive	–
CC1(C)S[C@@H]2[C@H](C(=O)O)N=C(Cc3ccccc3)N2[C@H]1C(=O)O	inactive: 2.17% [at 11.4 µM, scaled: untreated 0%, proteasome inhibitor 100%]	–
O=C(c1cc(-c2ccco2)nn1-c1cccc(Cl)c1)N1CCCCC1	–	inconclusive: 31.6 µM [rising, partial curve]
CC1CN(C(=O)NCc2ccccc2)c2cc(Cl)ccc2O1 (stereo not given)	inconclusive: 0.877% [signal inhibitor]	–
COc1ccc(S(=O)(=O)N2CCN(C(=O)c3c(C)nn(-c4ccccc4)c3Cl)CC2)cc1	inconclusive: 5.11% [signal inhibitor]	–
CCc1nc(N)c(C#N)c(-c2ccc(OC)c(OC)c2)c1C	inactive	–
COc1cc(NC(=O)N2CCc3c(sc4c3CCCC4)C2c2ccccc2)cc(OC)c1OC (stereo not given)	inconclusive: 2.37% [signal inhibitor]	–
Cc1c2c(nc3c(C(=O)NC4CCCC4)cnn13)CCCC2	inactive	–
CCOc1ccc(CNC(=O)CSc2nnc(C)c3c(C)n(-c4ccc(Cl)cc4)nc23)cc1	inconclusive: 1.91% [signal inhibitor]	–
c1cncc(-c2nc(NCc3cccs3)c3ccccc3n2)c1	inactive: -2.11% [at 11.4 µM, scaled: untreated 0%, proteasome inhibitor 100%]	–
CCCn1c2ccccc2c2nc3ccccc3nc21	inactive	–
Cc1c(Cl)cccc1NC(=O)C[C@H]1Sc2ccccc2NC1=O	inactive: -1.31% [at 11.4 µM, scaled: untreated 0%, proteasome inhibitor 100%]	–
COc1ccc(-c2cc(C(F)(F)F)nc(SCCC(=O)Nc3ccc(OC)c(OC)c3)n2)cc1	inconclusive: 2.05% [signal inhibitor]	–
CCN(CC)C(=O)c1c(NC(=O)c2cccc(C)c2)sc2c1CCC(C)C2 (stereo not given)	–	inconclusive: 5.01 µM [signal inhibitor, partial curve]
Cc1ccc(NC(=O)c2sc3nc(-c4cccs4)ccc3c2N)cc1F	inconclusive: 9.91% [signal inhibitor]	–
OC(CN1CCN(c2ccccn2)CC1)Cn1c2ccccc2c2ccccc21 (stereo not given)	inconclusive: -1.28% [signal inhibitor]	–
Cc1ccc(-n2ncc3c(NC4CCCCCC4)ncnc32)cc1	inconclusive: 1.89% [signal inhibitor]	–
Cc1cc(C)c(-c2n[nH]c3c2C(c2ccccc2F)N(Cc2ccco2)C3=O)c(O)c1 (stereo not given)	inconclusive: 4.13% [signal inhibitor]	–
Cn1nnnc1SCCCNCc1ccccc1OCc1ccc(Cl)cc1	inactive	–

Structure (SMILES)	IkBa stabilization activation	Potency
COc1ccc(Nc2ncnc3sc4c(c23)CCCC4)cc1	inconclusive: -2.81% [signal inhibitor]	–
O=C(NCc1ccccc1Cl)c1ccc(CS(=O)(=O)c2ccc(Br)cc2)o1	inactive	–
CCOC(=O)C1CCN(C(=O)Cn2nc(CC)n3c(cc4sccc43)c2=O)CC1	inactive	–
C=C(C)COc1ccc(-c2[nH]ncc2Oc2cccc(OC)c2)c(O)c1	inconclusive: -2.24% [signal inhibitor]	–
CCN(CC)S(=O)(=O)c1ccc2c(c1)N(CC(=O)N1CCN(c3cccc(C)c3C)CC1)C(=O)CO2	inconclusive: 0.351% [signal inhibitor]	–
Clc1ccc(-n2ncc3c(NC4CCCC4)ncnc32)cc1	inconclusive: 5.55% [signal inhibitor]	–
COc1ccc(N2CCN(C(=O)c3cccn3-c3nnc(N4CCCC4)s3)CC2)cc1	inactive	–
CCOc1cc(CNS(=O)(=O)c2ccc3c(c2)C(C)(C)C(=O)N3)cc(OCC)c1OCC	inactive	–
CC(NC(=O)Cn1ccc2cc(S(=O)(=O)N3CCCCCC3)ccc21)c1ccccc1 (stereo not given)	inconclusive: 2.65% [signal inhibitor]	–
O=C(NCc1ccco1)c1cc(-c2cccc(Cl)c2)on1	inconclusive: 10.1% [signal inhibitor]	–
COc1ccc(C)cc1NC(=O)Nc1nnc(N2CCCCC2)s1	inconclusive: 0.846% [signal inhibitor]	–
CN1CCN(S(=O)(=O)c2ccc(N)cc2)CC1	inactive	–
Cc1ccc(C(=O)Nc2ccc3c(c2)nc2n3CCSC2)cc1	inconclusive: 13% [signal inhibitor]	–
CS(=O)(=O)N1CCC2(CC1)CN(Cc1ccc(C#N)cc1)C2	inactive: 3.33% [at 11.4 µM, scaled: untreated 0%, proteasome inhibitor 100%]	–
Cc1nn2c(=O)cc(COC(=O)c3cccc(NC(=O)COc4ccccc4C)c3)nc2s1	inconclusive: 11.5% [signal inhibitor]	–
Cc1ccc(N2C(=O)CCSC23C(=O)N(Cc2ccccc2)c2ccccc23)cc1 (stereo not given)	inconclusive: 1.86% [signal inhibitor]	–
CCN(CC)C(=O)c1ccc2c(c1)N(Cc1ccc(C(F)(F)F)cc1)C(=O)c1ccccc1S2	inconclusive: -3.04% [signal inhibitor]	–
CCC(=O)NCCc1nc2cc(NC(=O)c3cccc(Br)c3)ccc2n1C	inactive	–
Cc1ccc(NC(=O)Nc2nnc(N3CCCC3)s2)cc1C	inconclusive: 2.16% [signal inhibitor]	–
Cn1c(=O)c(C(=O)O)nn(-c2ccccc2)c1=O	inconclusive: -0.0122% [signal inhibitor]	–
O=C(Nc1nc(-c2nc3ccccc3s2)cs1)C1CC1	inactive	–
CCOC(=O)c1[nH]c(C)c(C(=O)N2CCN(c3ccc(F)cc3)CC2)c1C	inconclusive: 4% [signal inhibitor]	–
CCOc1ccccc1CNC(=O)C1CCCN(c2nnc(C)c3c(C)n(-c4ccccc4)nc23)C1 (stereo not given)	inconclusive: -2.69% [signal inhibitor]	–
COc1ccc(C(=O)N2CCN(c3nc4cc(C)ccc4cc3C#N)CC2)c(OC)c1	inconclusive: 1.38% [signal inhibitor]	–

Structure (SMILES)	IkBa stabilization activation	Potency
CCCN1C(=O)C(O)(CC(=O)c2ccc(OC)c(OC)c2)c2ccccc21 (stereo not given)	inconclusive: 5.63% [signal inhibitor]	–
CCOc1ccc(CCNc2cc(C)nc3ncnn23)cc1OCC	inactive	–
CCc1ccccc1N(C)C(=O)CCc1nc(-c2ccc(C)cc2)no1	inconclusive: 4.92% [signal inhibitor]	–
O=C(Nc1ccc2nc(SCCOc3ccccc3)sc2c1)c1cccs1	inconclusive: 1.36% [signal inhibitor]	–
O=C(Nc1ccc(C(F)(F)F)cc1)c1cc(S(=O)(=O)NC2CCCCC2)ccc1F	inconclusive: 1.77% [signal inhibitor]	–
CCCCn1c(SCC(=O)NCc2ccco2)nc2ccc(N3CCOCC3)cc2c1=O	inconclusive: 5.31% [signal inhibitor]	–
COc1cccc(CNC(=O)CSc2ncc3c(n2)-c2cc(Cl)ccc2N(C)S3(=O)=O)c1	inactive	–
CC(=O)c1c(C)[nH]c(C(=O)OCCCCN2C(=O)c3ccccc3C2=O)c1C	inconclusive: -2.31% [signal inhibitor]	–
CCc1ccc(NC(=O)c2ccc(F)c(S(=O)(=O)NC3CCCCCC3)c2)cc1	inconclusive: 2.55% [signal inhibitor]	–
CCOc1ccccc1NC(=O)c1sc2nc(C)cc(C)c2c1N	inactive	–
CC1CCN(S(=O)(=O)N2CCC(C(=O)N3CCC(N(C)CC4CCCO4)CC3)CC2)CC1 (stereo not given)	inactive	–
N[C@@H](CSC(=O)c1ccccc1)C(=O)O	inactive: -0.607% [at 11.4 µM, scaled: untreated 0%, proteasome inhibitor 100%]	–
O=C(CCC1CCCC1)N1CCc2c([nH]c3ccccc23)C1c1ccc(Cl)cc1 (stereo not given)	inactive	–
O=C(Nc1ccccc1F)c1nc(SCc2ccc(F)cc2)ncc1Cl	inactive	–
CC1CCc2noc(NC(=O)c3ccccc3[N+](=O)[O-])c2C1 (stereo not given)	inconclusive: -1.4% [signal inhibitor]	–
Cc1cc(=O)n2[nH]c(-c3ccc(F)cc3)nc2n1	–	inconclusive: 31.6 µM [signal inhibitor, partial curve]
CC(=O)Nc1cccc(N(C)S(C)(=O)=O)c1	inactive	–
CCc1nnc(NC(=O)CSc2nnc(CNc3ccc(Cl)cc3)o2)s1	inconclusive: 1.92% [signal inhibitor]	–
Cn1c(SCC(=O)Nc2ccc(F)cc2)nnc1-c1cccnc1	–	inconclusive: 12.6 µM [signal inhibitor, partial curve]
COc1ccc(C(=O)Oc2c(Sc3ccc(Cl)cc3)c(C)nn2C(C)(C)C)cc1OC	inconclusive: 8.66% [signal inhibitor]	–
NC(=O)CSc1cn(CCNC(=O)c2cccs2)c2ccccc12	inactive	–
COC(=O)c1cc(NC(=O)C2COc3ccccc3O2)ccc1Cl (stereo not given)	inconclusive: 2.73% [signal inhibitor]	–
